From paper PMC8546589
Results are given in words; binding and its absence hold for the method and conditions named. Binding seen in cells or lysates may run through a third protein. Some binding calls cover weakened binding; strength is not graded here. For some of these results: Tags and fused reporters may be left off the sequences shown. One block for each molecule: values may come before it.

Columns and labels:
[1] = target: T1, Myc-EhAgo2-2 (E. histolytica) (UniProt C4LVV2); assay: co-IP; anti-c-Myc agarose IP from whole-cell lysate of E. histolytica lines overexpressing the Myc-tagged protein, 2 h at 4°C; Western blot of the eluate (custom anti-EhAgo2-2, anti-actin, anti-histone 3)
T1 sequence: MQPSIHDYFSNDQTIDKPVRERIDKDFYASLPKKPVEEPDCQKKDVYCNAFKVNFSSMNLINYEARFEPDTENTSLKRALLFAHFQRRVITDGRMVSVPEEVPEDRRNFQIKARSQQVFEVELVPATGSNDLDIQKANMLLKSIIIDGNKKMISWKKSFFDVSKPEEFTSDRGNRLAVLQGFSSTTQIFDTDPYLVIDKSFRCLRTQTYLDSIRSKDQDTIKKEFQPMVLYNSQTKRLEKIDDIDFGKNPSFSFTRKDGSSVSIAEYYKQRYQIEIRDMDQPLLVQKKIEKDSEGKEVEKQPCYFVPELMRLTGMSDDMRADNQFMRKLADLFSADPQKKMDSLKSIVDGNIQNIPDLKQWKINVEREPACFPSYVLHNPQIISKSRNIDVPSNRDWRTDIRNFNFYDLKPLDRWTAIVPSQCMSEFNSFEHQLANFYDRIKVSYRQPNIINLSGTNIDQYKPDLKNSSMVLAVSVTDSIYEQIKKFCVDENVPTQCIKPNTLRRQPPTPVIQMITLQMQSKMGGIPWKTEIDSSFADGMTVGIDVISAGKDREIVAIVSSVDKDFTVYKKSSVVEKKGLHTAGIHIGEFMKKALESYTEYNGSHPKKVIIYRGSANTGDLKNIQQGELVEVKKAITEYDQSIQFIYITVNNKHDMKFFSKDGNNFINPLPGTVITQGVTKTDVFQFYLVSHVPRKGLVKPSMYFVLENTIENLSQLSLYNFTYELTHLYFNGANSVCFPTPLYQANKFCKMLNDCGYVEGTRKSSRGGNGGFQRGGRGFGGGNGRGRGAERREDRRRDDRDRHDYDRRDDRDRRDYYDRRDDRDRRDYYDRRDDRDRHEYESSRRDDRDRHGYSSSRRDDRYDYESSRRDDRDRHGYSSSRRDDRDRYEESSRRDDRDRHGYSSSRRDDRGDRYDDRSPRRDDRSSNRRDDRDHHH

[2] = target: Myc-EhAgo2-2^ΔNLS-DR (E. histolytica) (UniProt C4LVV2); assay: as above
[3] = target: T2, GST-NAP12 (E. histolytica) (UniProt C4M8H9); assay: pull-down; GST-tagged bait bound from bacterial lysate to glutathione beads and washed; incubated with bacterial lysate containing the His-tagged prey, 15 min at room temperature then 1 h at 4°C; washed with GST-wash buffer (350 mM NaCl); eluted with glutathione; SDS-PAGE, Coomassie; only the target purified
T2 sequence: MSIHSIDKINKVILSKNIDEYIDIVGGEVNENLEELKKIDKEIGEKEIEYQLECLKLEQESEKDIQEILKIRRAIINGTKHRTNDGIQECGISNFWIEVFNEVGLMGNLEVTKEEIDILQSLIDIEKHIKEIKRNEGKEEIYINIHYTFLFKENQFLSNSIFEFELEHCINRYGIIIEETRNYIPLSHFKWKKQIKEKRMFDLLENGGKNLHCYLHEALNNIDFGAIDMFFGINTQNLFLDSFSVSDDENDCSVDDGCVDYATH

[4] = target: T3, Myc-NAP12 (E. histolytica) (UniProt C4M8H9); assay: co-IP; anti-c-Myc agarose IP from whole-cell lysate of E. histolytica lines overexpressing the Myc-tagged protein, 2 h at 4°C; Western blot of the eluate (custom anti-EhAgo2-2, anti-actin, anti-histone 3)
T3 sequence: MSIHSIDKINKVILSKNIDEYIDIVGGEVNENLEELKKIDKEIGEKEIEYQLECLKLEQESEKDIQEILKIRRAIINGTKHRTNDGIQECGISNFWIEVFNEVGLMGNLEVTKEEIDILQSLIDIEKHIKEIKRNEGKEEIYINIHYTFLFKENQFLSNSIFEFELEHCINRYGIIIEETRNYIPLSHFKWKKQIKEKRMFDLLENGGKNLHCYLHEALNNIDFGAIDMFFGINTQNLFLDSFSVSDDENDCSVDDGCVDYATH

[5] = target: T2, GST-NAP12 (E. histolytica); assay: pull-down; GST-tagged NAP bait (or GST-NAP12 prebound with His-NAP07) on glutathione-agarose beads incubated with whole-cell lysate of parasites overexpressing Myc-EhAgo2-2; eluate analysed by silver stain and anti-Myc Western blot; only the target purified
[6] = target: T4, prebound NAPs of GST-NAP12 with His-NAP07 (E. histolytica) (UniProt C4M8H9+C4M608); assay: as above
T4 sequence 1: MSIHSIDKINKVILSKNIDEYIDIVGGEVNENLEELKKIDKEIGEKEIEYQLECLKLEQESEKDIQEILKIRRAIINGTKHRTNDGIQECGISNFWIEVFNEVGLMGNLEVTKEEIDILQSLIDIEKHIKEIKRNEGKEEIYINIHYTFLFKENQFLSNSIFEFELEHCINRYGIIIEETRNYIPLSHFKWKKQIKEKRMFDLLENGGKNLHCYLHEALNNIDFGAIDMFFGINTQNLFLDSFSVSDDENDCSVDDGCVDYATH
T4 sequence 2: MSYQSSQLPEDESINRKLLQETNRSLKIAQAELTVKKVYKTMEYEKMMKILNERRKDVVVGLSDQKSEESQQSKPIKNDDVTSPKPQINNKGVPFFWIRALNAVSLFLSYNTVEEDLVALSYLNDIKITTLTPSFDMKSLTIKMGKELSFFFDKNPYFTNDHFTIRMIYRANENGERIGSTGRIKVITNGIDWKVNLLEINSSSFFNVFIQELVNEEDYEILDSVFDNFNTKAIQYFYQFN

[7] = target: T5, GST-NAP07 (E. histolytica) (UniProt C4M608); assay: pull-down; GST-tagged bait bound from bacterial lysate to glutathione beads and washed; incubated with bacterial lysate containing the His-tagged prey, 15 min at room temperature then 1 h at 4°C; washed with GST-wash buffer (350 mM NaCl); eluted with glutathione; SDS-PAGE, Coomassie; only the target purified
T5 sequence: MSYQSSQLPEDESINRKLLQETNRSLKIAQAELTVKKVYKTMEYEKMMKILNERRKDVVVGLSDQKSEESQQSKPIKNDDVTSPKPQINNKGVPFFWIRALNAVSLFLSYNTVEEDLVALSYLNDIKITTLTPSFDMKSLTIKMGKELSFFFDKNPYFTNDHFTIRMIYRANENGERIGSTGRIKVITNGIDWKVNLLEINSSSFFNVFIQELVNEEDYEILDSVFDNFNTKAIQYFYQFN

Molecule: actin (from UniProt P11426 1-376)
binding [1]: no binding | binding [2]: no binding

binding [3]: binds
B1: His-NAP07 (protein, UniProt C4M608 1-241)
chain: MSYQSSQLPEDESINRKLLQETNRSLKIAQAELTVKKVYKTMEYEKMMKILNERRKDVVVGLSDQKSEESQQSKPIKNDDVTSPKPQINNKGVPFFWIRALNAVSLFLSYNTVEEDLVALSYLNDIKITTLTPSFDMKSLTIKMGKELSFFFDKNPYFTNDHFTIRMIYRANENGERIGSTGRIKVITNGIDWKVNLLEINSSSFFNVFIQELVNEEDYEILDSVFDNFNTKAIQYFYQFN

binding [4]: binds
B2: EhAgo2-2 (endogenous) (protein, UniProt C4LVV2 1-937)
chain: MQPSIHDYFSNDQTIDKPVRERIDKDFYASLPKKPVEEPDCQKKDVYCNAFKVNFSSMNLINYEARFEPDTENTSLKRALLFAHFQRRVITDGRMVSVPEEVPEDRRNFQIKARSQQVFEVELVPATGSNDLDIQKANMLLKSIIIDGNKKMISWKKSFFDVSKPEEFTSDRGNRLAVLQGFSSTTQIFDTDPYLVIDKSFRCLRTQTYLDSIRSKDQDTIKKEFQPMVLYNSQTKRLEKIDDIDFGKNPSFSFTRKDGSSVSIAEYYKQRYQIEIRDMDQPLLVQKKIEKDSEGKEVEKQPCYFVPELMRLTGMSDDMRADNQFMRKLADLFSADPQKKMDSLKSIVDGNIQNIPDLKQWKINVEREPACFPSYVLHNPQIISKSRNIDVPSNRDWRTDIRNFNFYDLKPLDRWTAIVPSQCMSEFNSFEHQLANFYDRIKVSYRQPNIINLSGTNIDQYKPDLKNSSMVLAVSVTDSIYEQIKKFCVDENVPTQCIKPNTLRRQPPTPVIQMITLQMQSKMGGIPWKTEIDSSFADGMTVGIDVISAGKDREIVAIVSSVDKDFTVYKKSSVVEKKGLHTAGIHIGEFMKKALESYTEYNGSHPKKVIIYRGSANTGDLKNIQQGELVEVKKAITEYDQSIQFIYITVNNKHDMKFFSKDGNNFINPLPGTVITQGVTKTDVFQFYLVSHVPRKGLVKPSMYFVLENTIENLSQLSLYNFTYELTHLYFNGANSVCFPTPLYQANKFCKMLNDCGYVEGTRKSSRGGNGGFQRGGRGFGGGNGRGRGAERREDRRRDDRDRHDYDRRDDRDRRDYYDRRDDRDRRDYYDRRDDRDRHEYESSRRDDRDRHGYSSSRRDDRYDYESSRRDDRDRHGYSSSRRDDRDRYEESSRRDDRDRHGYSSSRRDDRGDRYDDRSPRRDDRSSNRRDDRDHHH

binding [5]: binds | binding [6]: binds
B3: Myc-EhAgo2-2 (protein, UniProt C4LVV2 1-937)
chain: MQPSIHDYFSNDQTIDKPVRERIDKDFYASLPKKPVEEPDCQKKDVYCNAFKVNFSSMNLINYEARFEPDTENTSLKRALLFAHFQRRVITDGRMVSVPEEVPEDRRNFQIKARSQQVFEVELVPATGSNDLDIQKANMLLKSIIIDGNKKMISWKKSFFDVSKPEEFTSDRGNRLAVLQGFSSTTQIFDTDPYLVIDKSFRCLRTQTYLDSIRSKDQDTIKKEFQPMVLYNSQTKRLEKIDDIDFGKNPSFSFTRKDGSSVSIAEYYKQRYQIEIRDMDQPLLVQKKIEKDSEGKEVEKQPCYFVPELMRLTGMSDDMRADNQFMRKLADLFSADPQKKMDSLKSIVDGNIQNIPDLKQWKINVEREPACFPSYVLHNPQIISKSRNIDVPSNRDWRTDIRNFNFYDLKPLDRWTAIVPSQCMSEFNSFEHQLANFYDRIKVSYRQPNIINLSGTNIDQYKPDLKNSSMVLAVSVTDSIYEQIKKFCVDENVPTQCIKPNTLRRQPPTPVIQMITLQMQSKMGGIPWKTEIDSSFADGMTVGIDVISAGKDREIVAIVSSVDKDFTVYKKSSVVEKKGLHTAGIHIGEFMKKALESYTEYNGSHPKKVIIYRGSANTGDLKNIQQGELVEVKKAITEYDQSIQFIYITVNNKHDMKFFSKDGNNFINPLPGTVITQGVTKTDVFQFYLVSHVPRKGLVKPSMYFVLENTIENLSQLSLYNFTYELTHLYFNGANSVCFPTPLYQANKFCKMLNDCGYVEGTRKSSRGGNGGFQRGGRGFGGGNGRGRGAERREDRRRDDRDRHDYDRRDDRDRRDYYDRRDDRDRRDYYDRRDDRDRHEYESSRRDDRDRHGYSSSRRDDRYDYESSRRDDRDRHGYSSSRRDDRDRYEESSRRDDRDRHGYSSSRRDDRGDRYDDRSPRRDDRSSNRRDDRDHHH

binding [7]: binds
B4: His-NAP12 (protein, UniProt C4M8H9 1-264)
chain: MSIHSIDKINKVILSKNIDEYIDIVGGEVNENLEELKKIDKEIGEKEIEYQLECLKLEQESEKDIQEILKIRRAIINGTKHRTNDGIQECGISNFWIEVFNEVGLMGNLEVTKEEIDILQSLIDIEKHIKEIKRNEGKEEIYINIHYTFLFKENQFLSNSIFEFELEHCINRYGIIIEETRNYIPLSHFKWKKQIKEKRMFDLLENGGKNLHCYLHEALNNIDFGAIDMFFGINTQNLFLDSFSVSDDENDCSVDDGCVDYATH
